Measured values: article PMC4336329 (PLoS ONE, 2015)
Out of some 310,000 compounds screened, about 2,200 (0.71%) showed an effect of 50% or more. The effect is printed as a negative number. The list shows a part of the results.

The molecules below were run against human ether-à-go-go-related gene (hERG) potassium channel (human, UniProt Q12809) (assay: primary screen, population patch clamp on CHO cells stably expressing hERG).
Chain of human ether-à-go-go-related gene (hERG) potassium channel (Q12809 whole entry, looked up): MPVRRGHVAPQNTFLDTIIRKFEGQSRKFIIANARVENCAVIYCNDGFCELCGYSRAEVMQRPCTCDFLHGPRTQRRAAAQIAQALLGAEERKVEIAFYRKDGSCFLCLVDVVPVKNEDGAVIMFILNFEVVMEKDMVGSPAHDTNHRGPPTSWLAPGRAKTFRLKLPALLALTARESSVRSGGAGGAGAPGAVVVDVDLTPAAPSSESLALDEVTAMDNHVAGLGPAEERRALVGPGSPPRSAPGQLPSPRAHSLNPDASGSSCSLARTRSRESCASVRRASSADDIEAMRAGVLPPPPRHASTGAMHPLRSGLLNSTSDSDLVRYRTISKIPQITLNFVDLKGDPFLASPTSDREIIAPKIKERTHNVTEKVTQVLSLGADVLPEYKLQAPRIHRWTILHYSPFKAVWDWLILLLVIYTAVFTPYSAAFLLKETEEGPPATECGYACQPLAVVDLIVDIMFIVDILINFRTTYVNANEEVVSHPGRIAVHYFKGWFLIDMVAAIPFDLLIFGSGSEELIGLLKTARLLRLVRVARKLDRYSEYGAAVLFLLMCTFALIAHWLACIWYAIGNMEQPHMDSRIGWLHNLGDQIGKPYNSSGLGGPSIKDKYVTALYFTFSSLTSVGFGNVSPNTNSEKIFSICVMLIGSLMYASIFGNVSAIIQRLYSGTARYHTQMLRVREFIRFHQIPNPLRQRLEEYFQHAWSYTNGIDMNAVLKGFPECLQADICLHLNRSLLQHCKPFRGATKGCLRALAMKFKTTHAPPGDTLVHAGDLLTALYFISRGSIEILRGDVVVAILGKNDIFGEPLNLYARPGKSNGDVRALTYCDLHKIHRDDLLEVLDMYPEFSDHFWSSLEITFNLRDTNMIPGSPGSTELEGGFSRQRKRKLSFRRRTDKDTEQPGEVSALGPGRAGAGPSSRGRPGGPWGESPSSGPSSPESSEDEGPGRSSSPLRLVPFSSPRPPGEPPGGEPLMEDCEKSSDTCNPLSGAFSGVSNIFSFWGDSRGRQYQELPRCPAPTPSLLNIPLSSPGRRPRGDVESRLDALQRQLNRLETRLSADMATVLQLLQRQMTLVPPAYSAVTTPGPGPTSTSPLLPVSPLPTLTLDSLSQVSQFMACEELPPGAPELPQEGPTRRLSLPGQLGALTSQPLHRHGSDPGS
`CC(C)N(C(=O)Cn1cnc2c(cnn2-c2ccccc2Cl)c1=O)C(C)C` was tested, and the “hERG current change (%, negative = inhibition) at 1uM” value was 12.8%. For `COc1cc(OC)cc(C(=O)N(CCCN2C(=O)c3cccc4cccc(c34)C2=O)c2cccc(OC)c2)c1`, the “hERG current change (%, negative = inhibition) at 1uM” value was 9.63%. In the case of `CCOC(=O)c1ccc(COC(=O)CNC(=O)CNC(=O)Cc2ccccc2)cc1`, the “hERG current change (%, negative = inhibition) at 1uM” value is reported as -40.4%. `O=C(NCC1CCCO1)C(c1ccco1)N(Cc1ccc(F)cc1)C(=O)CN1C(=O)c2ccccc2S1(=O)=O` (centres unmarked) was tested, and the “hERG current change (%, negative = inhibition) at 1uM” value was 8.75%. `O=C(CCn1c(=O)oc2ccccc21)Nc1ccc(N2CCOCC2)cc1` was tested, and the “hERG current change (%, negative = inhibition) at 1uM” value was 19.9%. For `COc1cc(/C=N/NC(=Nc2ccc(C)cc2)c2nc3ccccc3s2)ccc1O`, the “hERG current change (%, negative = inhibition) at 1uM” value was -10.7%. For `CC1CCCCN1CCNC(=O)CN1C(=O)CSc2ccc(S(=O)(=O)N3CCCCC3)cc21` (centres unmarked), the “hERG current change (%, negative = inhibition) at 1uM” value was -4.31%. For `Cl.c1ccc(CN2CCNCC2)nc1`, the “hERG current change (%, negative = inhibition) at 1uM” value was 16.6%. `COc1ccnc(CSC(N)=Nc2ccccc2C(F)(F)F)c1` was tested, and the “hERG current change (%, negative = inhibition) at 1uM” value was 5.22%. For `CC(=O)N(C(C)=O)c1ncc2c([nH]c3ccccc32)c1C#N`, the “hERG current change (%, negative = inhibition) at 1uM” value was 15.6%. In the case of `Cc1ccc2c(c1)nnn2C1CCN(CC(=O)NCCc2ccccc2)CC1`, the “hERG current change (%, negative = inhibition) at 1uM” value is reported as -8.03%. For `CCc1nnc(N/N=C/c2cc(C)c(C)cc2C)n1N`, the “hERG current change (%, negative = inhibition) at 1uM” value was 10.9%. With `COc1ccc(C)cc1NC(=O)CCC(=O)Nc1nnc(C2CCCCC2)s1` the “hERG current change (%, negative = inhibition) at 1uM” value was 21.5%. With `CSCC[C@H](N)C(=O)NCC1CCC(C(=O)N[C@@H](Cc2ccccc2)C(=O)O)CC1.Cl` (some centres unmarked) the “hERG current change (%, negative = inhibition) at 1uM” value was 13.5%. With `O=C(Nc1nc2ccccc2s1)c1cccc(N2C(=O)CCC2=O)c1` the “hERG current change (%, negative = inhibition) at 1uM” value was 9.87%. `CC(=O)c1sc(NC(=O)CS(=O)(=O)c2ccccc2)nc1C` was tested, and the “hERG current change (%, negative = inhibition) at 1uM” value was -9.05%. In the case of `COc1cccc(C2CC(c3ccccc3C)n3nc(N)nc3N2)c1` (centres unmarked), the “hERG current change (%, negative = inhibition) at 1uM” value is reported as 7.31%. `COc1ccc(NC(=O)CC2C(=O)N(C)C(=S)N2CCc2ccc(F)cc2)cc1` (centres unmarked) was tested, and the “hERG current change (%, negative = inhibition) at 1uM” value was 5.78%. In the case of `COc1cc(N=c2ssnc2Cl)cc(OC)c1`, the “hERG current change (%, negative = inhibition) at 1uM” value is reported as 3.92%. `O=C1CCCN1CCCNc1ncnc2c1cnn2-c1ccc(Cl)cc1` was tested, and the “hERG current change (%, negative = inhibition) at 1uM” value was -1.84%. For `O=C(CSc1nc2ccccc2[nH]1)Nc1ccc(F)c(F)c1`, the “hERG current change (%, negative = inhibition) at 1uM” value was 0.944%. With `O=C(O)c1cc(S(=O)(=O)N(Cc2ccccc2)c2ccccc2Cl)ccc1Cl` the “hERG current change (%, negative = inhibition) at 1uM” value was 16.7%. `Cc1cccc(-n2c(O)cnc2Nc2nc(C)cc(C)n2)c1` was tested, and the “hERG current change (%, negative = inhibition) at 1uM” value was 8.64%. In the case of `CC(C)(c1ccccc1)c1ccc(OCCN)cc1.Cl`, the “hERG current change (%, negative = inhibition) at 1uM” value is reported as 11.7%. `O=C(COC(=O)c1ccccc1Cc1ccccc1)NC1CCS(=O)(=O)C1` (centres unmarked) was tested, and the “hERG current change (%, negative = inhibition) at 1uM” value was 7.09%. For `N#Cc1ccc(Oc2c(Cl)cncc2Cl)cc1`, the “hERG current change (%, negative = inhibition) at 1uM” value was 7.35%. In the case of `CC(C)(O)C#Cc1ccc(C(=O)NCc2cccs2)s1`, the “hERG current change (%, negative = inhibition) at 1uM” value is reported as 2.44%. With `CCc1nc2oc3ccccc3c(=O)c2c(=O)n1-c1ccc(C)cc1` the “hERG current change (%, negative = inhibition) at 1uM” value was 11.9%. With `CC(C)NS(=O)(=O)c1ccc(NCCCn2ccnc2)c([N+](=O)[O-])c1` the “hERG current change (%, negative = inhibition) at 1uM” value was 13.7%. In the case of `CCOc1cc(C(=O)OCC(=O)c2cc(C)n(CC3CCCO3)c2C)ccc1OCC(=O)N1CCOCC1` (centres unmarked), the “hERG current change (%, negative = inhibition) at 1uM” value is reported as 6.77%. For `CC(Oc1ccc(S(=O)(=O)N2CCCC2)cc1[N+](=O)[O-])C(=O)NC1(C#N)CCCCC1` (centres unmarked), the “hERG current change (%, negative = inhibition) at 1uM” value was 1.24%. With `CO/N=C/CC(=O)Nc1ccc(F)cc1F` the “hERG current change (%, negative = inhibition) at 1uM” value was 12%. In the case of `C=CCc1cccc2cc(C(=O)Nc3ccc(S(=O)(=O)Nc4nnc(CC)s4)cc3)c(=O)oc12`, the “hERG current change (%, negative = inhibition) at 1uM” value is reported as 1.95%. With `O=Cc1c(Nc2cccc(C(F)(F)F)c2)nc2ccccn2c1=O` the “hERG current change (%, negative = inhibition) at 1uM” value was 10.8%. In the case of `O=C(OCC(=O)N1CCCc2ccccc21)c1cccc(S(=O)(=O)N2CCOCC2)c1`, the “hERG current change (%, negative = inhibition) at 1uM” value is reported as 10.6%. With `CC(C)c1ccc(/C=N/NC(=O)CC(=O)NC2CCCCC2)cc1` the “hERG current change (%, negative = inhibition) at 1uM” value was 10.2%. With `CCCCCC1CC(=O)C=C(C)C1C(=O)OC` (centres unmarked) the “hERG current change (%, negative = inhibition) at 1uM” value was 11.4%. With `O=C(CN(c1ccc(Cl)cc1)S(=O)(=O)c1ccccc1)N/N=C/c1ccco1` the “hERG current change (%, negative = inhibition) at 1uM” value was 3.97%. For `O=C1c2ccc(Oc3ccc4c(c3)C(=O)N(CCCCO)C4=O)cc2C(=O)N1CCCCO`, the “hERG current change (%, negative = inhibition) at 1uM” value was 9.02%. In the case of `O=[N+]([O-])c1ccccc1S(=O)(=O)N(CC1CO1)c1ccccc1` (centres unmarked), the “hERG current change (%, negative = inhibition) at 1uM” value is reported as 15.9%. For `COc1ccccc1CNC(=S)NCCc1ccccc1`, the “hERG current change (%, negative = inhibition) at 1uM” value was 8.63%. With `O=C(Nc1ccccc1)Nc1nccs1` the “hERG current change (%, negative = inhibition) at 1uM” value was -4.78%. With `CCCn1c(SCC(=O)Nc2nnc(C)s2)nnc1-c1ccoc1C` the “hERG current change (%, negative = inhibition) at 1uM” value was 6.16%. For `CC(O)CNc1ccc(-c2nn(C)c(=O)c3ccccc23)cc1[N+](=O)[O-]` (centres unmarked), the “hERG current change (%, negative = inhibition) at 1uM” value was 5.09%. In the case of `O=C(NC1CC2CCCC(C1)N2C(=O)Nc1ccccc1)c1ccccc1` (centres unmarked), the “hERG current change (%, negative = inhibition) at 1uM” value is reported as 9.61%. `CCOC(=O)c1ccc(Nc2nc(C)nc3c2nnn3Cc2ccccc2)cc1` was tested, and the “hERG current change (%, negative = inhibition) at 1uM” value was 13.5%. `COC(=O)N/N=C(\C)c1ccccc1OC(F)F` was tested, and the “hERG current change (%, negative = inhibition) at 1uM” value was 4.38%. In the case of `O=C(O)c1ccc2c(c1)C(=O)/C(=C/c1ccccc1)C2=O`, the “hERG current change (%, negative = inhibition) at 1uM” value is reported as 5.78%. With `COc1ccc(CC(NC(C)=O)C(=O)NC2CCN(C(=O)c3cc(OC)c(OC)c(OC)c3)CC2)cc1` (centres unmarked) the “hERG current change (%, negative = inhibition) at 1uM” value was 14.3%. For `Cc1nn(C)cc1CNC(=O)c1ccc(Br)o1`, the “hERG current change (%, negative = inhibition) at 1uM” value was 4.61%. `Cc1cc(C(=O)Nc2sc3c(c2C#N)CCCC3)no1` was tested, and the “hERG current change (%, negative = inhibition) at 1uM” value was 10.9%. `O=C(NCc1ccccc1)C(=O)NCC1OCCN1C(=O)c1ccc(Cl)cc1` (centres unmarked) was tested, and the “hERG current change (%, negative = inhibition) at 1uM” value was 6.18%. For `CS(=O)(=O)c1ccccc1C(=O)NCCC(c1ccccc1)c1ccccc1`, the “hERG current change (%, negative = inhibition) at 1uM” value was -3.33%. With `Cc1ccc(S(=O)(=O)N2CCOC2CNC(=O)C(=O)NCc2ccccn2)cc1` (centres unmarked) the “hERG current change (%, negative = inhibition) at 1uM” value was 11.3%. For `COc1ccc(C2C(C#N)=C(C)NC(C)=C2C(=O)OC(C)C)c(OC)c1` (centres unmarked), the “hERG current change (%, negative = inhibition) at 1uM” value was 7.42%. For `CCn1nnnc1SCC(=O)Nc1ccc(F)cc1`, the “hERG current change (%, negative = inhibition) at 1uM” value was 10.5%.
